Assay [1] deals with T1, endogenous CAS (mouse embryonic fibroblasts) (mouse (endogenous in MEFs)) (UniProt Q61140).
T1 sequence: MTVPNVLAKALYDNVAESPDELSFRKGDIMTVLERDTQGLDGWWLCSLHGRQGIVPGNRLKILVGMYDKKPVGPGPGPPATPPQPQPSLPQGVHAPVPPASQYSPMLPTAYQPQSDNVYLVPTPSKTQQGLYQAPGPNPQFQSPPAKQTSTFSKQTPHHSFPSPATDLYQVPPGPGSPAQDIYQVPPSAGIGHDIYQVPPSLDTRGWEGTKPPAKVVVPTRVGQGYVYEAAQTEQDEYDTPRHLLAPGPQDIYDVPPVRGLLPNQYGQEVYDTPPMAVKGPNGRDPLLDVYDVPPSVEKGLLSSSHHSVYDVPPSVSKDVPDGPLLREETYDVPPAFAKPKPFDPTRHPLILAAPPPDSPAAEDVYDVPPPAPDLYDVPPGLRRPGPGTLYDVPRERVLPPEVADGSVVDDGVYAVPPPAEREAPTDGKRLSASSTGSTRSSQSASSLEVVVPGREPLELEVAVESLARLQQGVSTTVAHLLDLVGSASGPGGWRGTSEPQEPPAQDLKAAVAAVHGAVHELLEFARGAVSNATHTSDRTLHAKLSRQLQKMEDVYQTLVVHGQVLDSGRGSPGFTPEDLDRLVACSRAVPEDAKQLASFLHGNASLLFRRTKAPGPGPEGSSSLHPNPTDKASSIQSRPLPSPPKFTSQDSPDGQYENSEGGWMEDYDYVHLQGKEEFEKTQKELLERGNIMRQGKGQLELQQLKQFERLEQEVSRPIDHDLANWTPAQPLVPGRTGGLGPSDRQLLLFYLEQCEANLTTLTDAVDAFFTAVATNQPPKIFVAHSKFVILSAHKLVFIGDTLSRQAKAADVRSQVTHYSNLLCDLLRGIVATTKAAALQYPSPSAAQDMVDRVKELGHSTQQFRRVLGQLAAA
The assay can be described thus: co-IP; CAS immunoprecipitated with anti-CAS antibody and protein-A sepharose from lysates of MEFs and of Src-transformed (SrcF) MEFs, with or without 5 µM saracatinib for 3 h; blots for FAK and Vinculin.

The chains behind the UniProt entries cited, without tags or fusion partners.
UniProt P34152: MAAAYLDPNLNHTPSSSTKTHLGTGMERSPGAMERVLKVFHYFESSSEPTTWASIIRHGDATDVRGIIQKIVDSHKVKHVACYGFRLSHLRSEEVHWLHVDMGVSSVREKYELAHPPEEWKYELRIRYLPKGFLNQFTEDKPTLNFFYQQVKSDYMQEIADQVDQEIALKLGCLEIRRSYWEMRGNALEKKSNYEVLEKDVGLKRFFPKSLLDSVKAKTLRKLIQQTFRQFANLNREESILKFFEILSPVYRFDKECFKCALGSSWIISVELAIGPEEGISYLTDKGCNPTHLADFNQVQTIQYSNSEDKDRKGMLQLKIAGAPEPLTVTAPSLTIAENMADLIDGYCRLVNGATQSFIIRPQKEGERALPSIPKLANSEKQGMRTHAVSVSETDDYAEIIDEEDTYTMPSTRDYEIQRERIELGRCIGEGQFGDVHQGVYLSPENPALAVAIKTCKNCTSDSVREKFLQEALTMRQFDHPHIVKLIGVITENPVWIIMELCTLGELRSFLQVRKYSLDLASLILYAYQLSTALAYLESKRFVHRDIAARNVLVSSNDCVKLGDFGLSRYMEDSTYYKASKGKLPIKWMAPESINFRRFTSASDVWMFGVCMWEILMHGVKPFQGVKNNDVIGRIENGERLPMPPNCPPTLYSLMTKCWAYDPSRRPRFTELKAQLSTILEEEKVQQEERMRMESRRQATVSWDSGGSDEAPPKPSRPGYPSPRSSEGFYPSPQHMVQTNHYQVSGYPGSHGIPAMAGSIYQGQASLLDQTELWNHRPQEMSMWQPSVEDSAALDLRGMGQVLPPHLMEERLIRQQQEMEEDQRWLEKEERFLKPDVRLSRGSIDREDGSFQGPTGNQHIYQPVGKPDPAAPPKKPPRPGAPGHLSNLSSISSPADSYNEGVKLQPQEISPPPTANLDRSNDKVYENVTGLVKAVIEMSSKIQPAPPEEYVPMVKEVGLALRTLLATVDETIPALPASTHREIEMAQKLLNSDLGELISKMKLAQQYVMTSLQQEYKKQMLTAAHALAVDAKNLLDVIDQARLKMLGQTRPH

Assay [2] addresses T2, GST-fused CAS SH3 domain (mouse) (UniProt Q61140).
T2 sequence: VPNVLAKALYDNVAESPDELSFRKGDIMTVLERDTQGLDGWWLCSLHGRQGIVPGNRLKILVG
Briefly: ELISA; phage ELISA: GST-CAS SH3 domain or its variants immobilised in 96-well plate (100 µl of 50 µg/ml; 5 µg per well), dilution series of phage stocks in TBS with 0.5% Tween 20, anti-M13-HRP; relative affinities from phage number at 50% saturation; only the target purified. In general terms: ELISA stands for enzyme-linked immunosorbent assay.

Assay [3] concerns the target T3, GST-fused CAS SH3 domain Y12E (mouse) (UniProt Q61140).
T3 sequence: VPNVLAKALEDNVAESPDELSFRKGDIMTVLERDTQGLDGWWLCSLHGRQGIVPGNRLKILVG
The description is as above.

Assay [4] deals with T2, GST-fused CAS SH3 domain (mouse). Briefly: pull-down; 20 µg GST-CAS SH3 variants on glutathione agarose incubated 2 h at 4 °C with lysates of transfected MDA-MB-231 cells; anti-Flag blot; only the target purified.
Assay [5] deals with T3, GST-fused CAS SH3 domain Y12E (mouse). The description is as above.
For a further assay, the target named is T4, Flag-DOK7 (human) (UniProt Q18PE1).
T4 sequence: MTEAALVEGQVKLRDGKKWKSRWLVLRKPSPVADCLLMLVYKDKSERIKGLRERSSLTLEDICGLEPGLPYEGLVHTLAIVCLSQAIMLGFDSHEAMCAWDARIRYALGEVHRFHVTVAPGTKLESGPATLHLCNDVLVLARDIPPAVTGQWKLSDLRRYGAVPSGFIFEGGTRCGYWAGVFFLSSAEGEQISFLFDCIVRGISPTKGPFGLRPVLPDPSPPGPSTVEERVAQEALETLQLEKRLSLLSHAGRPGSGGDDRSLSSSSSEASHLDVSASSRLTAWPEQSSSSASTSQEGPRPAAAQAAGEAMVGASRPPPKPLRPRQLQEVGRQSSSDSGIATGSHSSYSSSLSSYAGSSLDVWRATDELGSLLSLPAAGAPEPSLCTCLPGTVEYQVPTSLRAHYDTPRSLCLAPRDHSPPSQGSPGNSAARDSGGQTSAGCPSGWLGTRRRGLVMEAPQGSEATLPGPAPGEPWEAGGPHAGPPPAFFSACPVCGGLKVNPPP
The assay can be described thus: co-IP; anti-FLAG M2 affinity gel on Triton lysates (750 µg protein) of transfected MDA-MB-231 cells, overnight at 4 °C; anti-CAS blot.

Assay [6] deals with T5, Flag-GLIS2 (not stated (cDNA from the BLM melanoma cell line)) (UniProt Q9BZE0).
T5 sequence: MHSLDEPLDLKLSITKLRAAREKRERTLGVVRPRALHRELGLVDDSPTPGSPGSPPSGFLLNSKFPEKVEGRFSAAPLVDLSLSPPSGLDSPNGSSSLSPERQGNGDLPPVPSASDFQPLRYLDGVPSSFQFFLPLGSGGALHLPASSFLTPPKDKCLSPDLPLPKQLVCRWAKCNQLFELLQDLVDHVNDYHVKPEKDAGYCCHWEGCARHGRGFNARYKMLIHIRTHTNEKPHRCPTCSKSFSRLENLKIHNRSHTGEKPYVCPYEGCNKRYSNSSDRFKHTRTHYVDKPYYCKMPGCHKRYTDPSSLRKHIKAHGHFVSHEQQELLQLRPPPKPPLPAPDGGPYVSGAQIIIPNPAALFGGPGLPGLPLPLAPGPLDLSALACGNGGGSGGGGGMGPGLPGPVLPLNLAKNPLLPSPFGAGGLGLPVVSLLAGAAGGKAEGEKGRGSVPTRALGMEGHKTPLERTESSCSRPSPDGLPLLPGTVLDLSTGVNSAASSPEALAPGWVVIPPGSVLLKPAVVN
Described as above.

Consider eight molecules from article PMC5556061 (Scientific Reports, 2017).

No constants are given. Whether binding was seen depends on the method and setting. For some of these results: In cells and extracts the contact can be indirect. Some binding calls cover weakened binding; strength is not graded here. For some of these results: Sequences can lack the tags named with a protein.

“FAK (mouse embryonic fibroblasts) (from UniProt P34152 1-1052)”: the binding entry in assay [1] is given as “binds”.

B1: phage-displayed peptide clone 16 (AHTPPPKPTRPP) (peptide)
peptide: AHTPPPKPTRPP
notes: 12-residue peptide selected from a degenerate library; also called phage clone 16; source: M13 phage stock (Ph.D.-12 Phage Display Peptide Library, New England Biolabs), selected by panning
B1: the binding result in assay [2] was “binds”; in assay [3], “no binding”.

B2: Flag-GLIS2 (protein, UniProt Q9BZE0 1-524)
chain: MHSLDEPLDLKLSITKLRAAREKRERTLGVVRPRALHRELGLVDDSPTPGSPGSPPSGFLLNSKFPEKVEGRFSAAPLVDLSLSPPSGLDSPNGSSSLSPERQGNGDLPPVPSASDFQPLRYLDGVPSSFQFFLPLGSGGALHLPASSFLTPPKDKCLSPDLPLPKQLVCRWAKCNQLFELLQDLVDHVNDYHVKPEKDAGYCCHWEGCARHGRGFNARYKMLIHIRTHTNEKPHRCPTCSKSFSRLENLKIHNRSHTGEKPYVCPYEGCNKRYSNSSDRFKHTRTHYVDKPYYCKMPGCHKRYTDPSSLRKHIKAHGHFVSHEQQELLQLRPPPKPPLPAPDGGPYVSGAQIIIPNPAALFGGPGLPGLPLPLAPGPLDLSALACGNGGGSGGGGGMGPGLPGPVLPLNLAKNPLLPSPFGAGGLGLPVVSLLAGAAGGKAEGEKGRGSVPTRALGMEGHKTPLERTESSCSRPSPDGLPLLPGTVLDLSTGVNSAASSPEALAPGWVVIPPGSVLLKPAVVN
Take B2: the binding result is recorded as “binds” in assay [4] and “no binding” in assay [5].

B3: Vinculin (mouse embryonic fibroblasts) (protein, UniProt Q64727 1-1066)
chain: MPVFHTRTIESILEPVAQQISHLVIMHEEGEVDGKAIPDLTAPVAAVQAAVSNLVRVGKETVQTTEDQILKRDMPPAFIKVENACTKLVQAAQMLQSDPYSVPARDYLIDGSRGILSGTSDLLLTFDEAEVRKIIRVCKGILEYLTVAEVVETMEDLVTYTKNLGPGMTKMAKMIDERQQELTHQEHRVMLVNSMNTVKELLPVLISAMKIFVTTKNSKNQGIEEALKNRNFTVEKMSAEINEIIRVLQLTSWDEDAWASKDTEAMKRALASIDSKLNQAKGWLRDPNASPGDAGEQAIRQILDEAGKVGELCAGKERREILGTCKMLGQMTDQVADLRARGQGASPVAMQKAQQVSQGLDVLTAKVENAARKLEAMTNSKQSIAKKIDAAQNWLADPNGGPEGEEQIRGALAEARKIAELCDDPKERDDILRSLGEIAALTSKLGDLRRQGKGDSPEARALAKQVATALQNLQTKTNRAVANSRPAKAAVHLEGKIEQAQRWIDNPTVDDRGVGQAAIRGLVAEGHRLANVMMGPYRQDLLAKCDRVDQLTAQLADLAARGEGESPQARALASQLQDSLKDLKAQMQEAMTQEVSDVFSDTTTPIKLLAVAATAPPDAPNREEVFDERAANFENHSGRLGATAEKAAAVGTANKSTVEGIQASVKTARELTPQVISAARILLRNPGNQAAYEHFETMKNQWIDNVEKMTGLVDEAIDTKSLLDASEEAIKKDLDKCKVAMANIQPQMLVAGATSIARRANRILLVAKREVENSEDPKFREAVKAASDELSKTISPMVMDAKAVAGNISDPGLQKSFLDSGYRILGAVAKVREAFQPQEPDFPPPPPDLEQLRLTDELAPPKPPLPEGEVPPPRPPPPEEKDEEFPEQKAGEVINQPMMMAARQLHDEARKWSSKGNDIIAAAKRMALLMAEMSRLVRGGSGTKRALIQCAKDIAKASDEVTRLAKEVAKQCTDKRIRTNLLQVCERIPTISTQLKILSTVKATMLGRTNISDEESEQATEMLVHNAQNLMQSVKETVREAEAASIKIRTDAGFTLRWVRKTPWYQ
On to B3, for which the binding result in assay [1] is “binds”.

B4: phage-displayed peptide clone 10 (TMTPPPKPPRLI) (peptide)
peptide: TMTPPPKPPRLI
notes: 12-residue peptide selected from a degenerate library; also called phage clone 10; source: M13 phage stock (Ph.D.-12 Phage Display Peptide Library, New England Biolabs), selected by panning
Turning to B4, the values for the binding result in assay [2] and in assay [3] were “binds” and “no binding”, respectively.

B5: Flag-DOK7 (protein, UniProt Q18PE1 1-504)
chain: MTEAALVEGQVKLRDGKKWKSRWLVLRKPSPVADCLLMLVYKDKSERIKGLRERSSLTLEDICGLEPGLPYEGLVHTLAIVCLSQAIMLGFDSHEAMCAWDARIRYALGEVHRFHVTVAPGTKLESGPATLHLCNDVLVLARDIPPAVTGQWKLSDLRRYGAVPSGFIFEGGTRCGYWAGVFFLSSAEGEQISFLFDCIVRGISPTKGPFGLRPVLPDPSPPGPSTVEERVAQEALETLQLEKRLSLLSHAGRPGSGGDDRSLSSSSSEASHLDVSASSRLTAWPEQSSSSASTSQEGPRPAAAQAAGEAMVGASRPPPKPLRPRQLQEVGRQSSSDSGIATGSHSSYSSSLSSYAGSSLDVWRATDELGSLLSLPAAGAPEPSLCTCLPGTVEYQVPTSLRAHYDTPRSLCLAPRDHSPPSQGSPGNSAARDSGGQTSAGCPSGWLGTRRRGLVMEAPQGSEATLPGPAPGEPWEAGGPHAGPPPAFFSACPVCGGLKVNPPP
Regarding B5, the binding entry in assay [4] is on record as “binds”; in assay [5], “no binding”.

Consider FHAPPSKPPLPK [phage-displayed peptide clone 1 (…)], for which, in assay [2], the binding entry was “binds”.

B6: CAS/BCAR1 (in MDA-MB-231 cells) (protein, UniProt P56945 1-870)
chain: MNHLNVLAKALYDNVAESPDELSFRKGDIMTVLEQDTQGLDGWWLCSLHGRQGIVPGNRLKILVGMYDKKPAGPGPGPPATPAQPQPGLHAPAPPASQYTPMLPNTYQPQPDSVYLVPTPSKAQQGLYQVPGPSPQFQSPPAKQTSTFSKQTPHHPFPSPATDLYQVPPGPGGPAQDIYQVPPSAGMGHDIYQVPPSMDTRSWEGTKPPAKVVVPTRVGQGYVYEAAQPEQDEYDIPRHLLAPGPQDIYDVPPVRGLLPSQYGQEVYDTPPMAVKGPNGRDPLLEVYDVPPSVEKGLPPSNHHAVYDVPPSVSKDVPDGPLLREETYDVPPAFAKAKPFDPARTPLVLAAPPPDSPPAEDVYDVPPPAPDLYDVPPGLRRPGPGTLYDVPRERVLPPEVADGGVVDSGVYAVPPPAEREAPAEGKRLSASSTGSTRSSQSASSLEVAGPGREPLELEVAVEALARLQQGVSATVAHLLDLAGSAGATGSWRSPSEPQEPLVQDLQAAVAAVQSAVHELLEFARSAVGNAAHTSDRALHAKLSRQLQKMEDVHQTLVAHGQALDAGRGGSGATLEDLDRLVACSRAVPEDAKQLASFLHGNASLLFRRTKATAPGPEGGGTLHPNPTDKTSSIQSRPLPSPPKFTSQDSPDGQYENSEGGWMEDYDYVHLQGKEEFEKTQKELLEKGSITRQGKSQLELQQLKQFERLEQEVSRPIDHDLANWTPAQPLAPGRTGGLGPSDRQLLLFYLEQCEANLTTLTNAVDAFFTAVATNQPPKIFVAHSKFVILSAHKLVFIGDTLSRQAKAADVRSQVTHYSNLLCDLLRGIVATTKAAALQYPSPSAAQDMVERVKELGHSTQQFRRVLGQLAAA
Turning to B6, the binding result (with Flag-DOK7 (human); in assay [6]) was “binds” in each case.
